According to the supplement of paper PMC3334620:
The full ranking holds about 33,000 sequences; the median of “E-score (-0.5 to 0.5)” is about -0.043, and the highest 2% start at about 0.37. The list shows a part of the results.

Each sequence was assayed against T1, Upc2 (UniProt Q12151) (assay: PBM E-score (8-mer binding enrichment) (E-score (-0.5 to 0.5)); higher = stronger / more preferred TF binding; most listed sequences are background and not binding sites). Details: protein concentration: 200 nM; construct: GST-full length.
T1 sequence: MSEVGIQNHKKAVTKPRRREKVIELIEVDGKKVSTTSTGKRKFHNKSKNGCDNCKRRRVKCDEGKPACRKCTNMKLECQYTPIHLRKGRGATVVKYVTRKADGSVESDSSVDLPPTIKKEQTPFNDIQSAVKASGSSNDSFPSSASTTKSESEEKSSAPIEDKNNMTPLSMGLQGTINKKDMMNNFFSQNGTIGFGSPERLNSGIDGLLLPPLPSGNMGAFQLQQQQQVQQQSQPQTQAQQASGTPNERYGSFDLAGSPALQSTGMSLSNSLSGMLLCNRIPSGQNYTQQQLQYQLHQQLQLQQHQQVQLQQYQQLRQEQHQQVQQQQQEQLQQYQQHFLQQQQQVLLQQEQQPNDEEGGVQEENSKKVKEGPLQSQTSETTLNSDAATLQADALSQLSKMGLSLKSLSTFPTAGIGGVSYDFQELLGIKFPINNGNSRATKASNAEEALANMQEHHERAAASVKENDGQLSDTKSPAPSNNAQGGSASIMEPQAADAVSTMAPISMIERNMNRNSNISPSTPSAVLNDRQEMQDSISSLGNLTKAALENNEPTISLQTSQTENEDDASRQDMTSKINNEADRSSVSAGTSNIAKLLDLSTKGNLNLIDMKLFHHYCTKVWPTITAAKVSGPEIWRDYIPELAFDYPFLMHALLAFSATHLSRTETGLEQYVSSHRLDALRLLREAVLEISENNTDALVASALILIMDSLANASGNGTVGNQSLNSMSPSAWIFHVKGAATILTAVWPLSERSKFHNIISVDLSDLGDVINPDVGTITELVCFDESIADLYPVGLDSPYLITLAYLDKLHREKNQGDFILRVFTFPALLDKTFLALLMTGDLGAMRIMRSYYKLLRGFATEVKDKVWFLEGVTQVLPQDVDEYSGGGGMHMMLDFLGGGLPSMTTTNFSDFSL
Experimental: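 Universal 'all 10-mer' protein binding microarrays (Agilent AMADID 015681) probed with GST-tagged S. cerevisiae TFs (full-length or DBD) made by in vitro transcription/translation (PURExpress), about 100-200 nM. Bound TF was detected with fluorescent anti-GST. Each ungapped 8-mer (which stands for itself and its reverse complement) is scored by the PBM enrichment score (E-score), a modified Wilcoxon-Mann-Whitney statistic from -0.5 to +0.5, computed with the Universal PBM Analysis Suite. Scale: above 0.35 generally sequence-specific binding.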

| Sequence | PBM E-score |
| --- | --- |
| CGACACCA | 0.2 |
| CCGCTCCC | -0.0101 |
| AGACTCAC | -0.252 |
| ATAAGTAT | 0.182 |
| CTTCGTTA | 0.345 |
| CAGGTTAG | -0.191 |
| ATATCTAG | -0.0547 |
| AGGGTTTA | -0.113 |
| TCTTTAAA | 0.0359 |
| ATTGAGGG | -0.334 |
| CTCCCACC | -0.0368 |
| CGTCAGGC | -0.112 |
| GAGGCCGA | 0.0482 |
| GCGTACGA | 0.448 |
| TAATAGGA | -0.0422 |
| CGTCTAGA | 0.121 |
| ACTTTATG | -0.0577 |
| GATGCCAA | -0.095 |
| CGTGCTCA | -0.0493 |
| CCACGACG | -0.174 |
| CGGCCGCC | -0.0226 |
| AATTGTGC | 0.131 |
| CCTATCGA | -0.208 |
| CCATTGTC | -0.158 |
| AAGTGCGG | -0.161 |

| Sequence | PBM E-score |
| --- | --- |
| ATTGGGGG | -0.274 |
| AGCCGTAG | -0.0316 |
| ACATGTTC | 0.0169 |
| GCCAGTAA | -0.00828 |
| ACAATAGA | -0.101 |
| CGCACTCA | 0.118 |
| CGATAGAG | 0.131 |
| ATTCCAAA | 0.00842 |
| TGACCACA | -0.285 |
| GGCCGGCA | -0.229 |
| AAACATAG | -0.00681 |
| ACTTCTAG | -0.23 |
| ACATATGG | -0.0626 |
| GGCGCAGA | -0.0785 |
| CTACAACC | 0.0888 |
| ACGGTAGC | 0.0604 |
| CTCGCTTC | 0.134 |
| CACAATAG | -0.0551 |
| TAGCATAA | -0.0651 |
| GGCCGGAA | -0.216 |
| AACGTCGA | 0.202 |
| CAAACGTG | 0.225 |
| CAGCTCTC | -0.0943 |
| CAGCAGTA | -0.117 |
| GCATTACC | -0.15 |

| Sequence | PBM E-score |
| --- | --- |
| TAGGACTA | -0.168 |
| AAATCTTG | -0.204 |
| AAGACGGG | -0.115 |
| GACCGTAA | 0.294 |
| AGACGGAC | -0.284 |
| ACTGGAAG | -0.184 |
| GCCTAAGC | -0.129 |
| GAACGCCC | 0.0622 |
| ACGAGCGC | 0.347 |
| AATTTGGC | 0.0131 |
| AATTACGT | 0.141 |
| ATGTGATA | 0.0151 |
| ATCCCCCA | -0.145 |
| CCCCACAA | -0.215 |
| ACATTACG | 0.177 |
| ATGCTTGC | -0.113 |
| CGAAGCTA | 0.221 |
| GCAACAAA | 0.0688 |
| CCGACAGA | 0.102 |
| CGCCTCTA | -0.102 |
| CTTTGGGA | -0.207 |
| CTGTACAG | 0.158 |
| AGGATCCT | 0.0508 |
| CTAACAAG | -0.148 |
| ACGTTCCT | 0.105 |

| Sequence | PBM E-score |
| --- | --- |
| GGAATACA | -0.107 |
| ACCAAGAG | -0.294 |
| CGGCGCCC | -0.0673 |
| GAGCTCAA | 0.0879 |
| ATCGGGGA | -0.0416 |
| AGCGGATA | 0.0584 |
| CGGCTCTC | -0.12 |
| AGAGTGAA | -0.11 |
| ACGACCAC | 0.302 |
| AGAGGCGC | -0.0107 |
| GGCTAGAA | 0.114 |
| ACGCCCCT | -0.0337 |
| AAACCGAT | 0.149 |
| CAGCGGCC | -0.191 |
| CGTTATAG | 0.063 |
| ATGTGGTG | -0.0304 |
| GCGGCTCA | -0.0608 |
| CATTTCTC | -0.0325 |
| TGAGAAAA | -0.132 |
| GCACTGCC | -0.104 |
| AACCCCCA | -0.34 |
| GAGGTTCA | 0.157 |
| ACAACAGA | -0.171 |
| CGTACTTC | 0.252 |
| ATAGGCAG | -0.034 |

| Sequence | PBM E-score |
| --- | --- |
| ACATATCG | 0.0324 |
| TACCCGAA | 0.228 |
| CGCACCTA | 0.00889 |
| ATCACCCC | -0.0784 |
| AACTTATC | -0.121 |
| GCGCGTCC | -0.161 |
| AGCCCAGA | -0.156 |
| CCTAGCCG | -0.225 |
| CTAAAAAC | 0.148 |
| AAGGGGCG | -0.145 |
| AAGACCAA | -0.121 |
| GCGCTTCA | -0.0391 |
| GAGACTGC | -0.00306 |
| AAACTATG | -0.257 |
| ACGTTAAA | 0.269 |
| CCCTGCGC | -0.276 |
| TCGTGTCA | 0.0512 |
| ACTGATTA | 0.00651 |
| CGTTAAAG | 0.4 |
| CGTGCTTC | 0.014 |
| CCACGTAG | -0.0902 |
| GACCATGA | -0.0276 |
| CTAGTCGA | -0.127 |
| ACCAGACA | 0.0296 |
| AAAAAGTC | -0.00907 |

| Sequence | PBM E-score |
| --- | --- |
| AACGACAT | 0.432 |
| CAACGAGC | 0.286 |
| GTCCAAAA | -0.107 |
| AATCGTGC | 0.229 |
| AAGGCTGC | -0.0519 |
| CTTTCAGA | -0.0284 |
| TGCAGACA | -0.256 |
| TGAATCCA | -0.147 |
| CTGAACCA | -0.213 |
| GAAGTAAA | 0.0236 |
| CTAGGCGC | -0.0491 |
| AGTGAGAC | -0.0557 |
| TCATGGGA | -0.15 |
| CGCCAATA | 0.0567 |
| ACTTACCT | -0.13 |
| CGACGGCG | 0.0964 |
| AATGCCTA | -0.193 |
| CACTCCAG | 0.0251 |
| ACAGCAGC | -0.0513 |
| CAGCTGAG | -0.107 |
| CTATACCA | 0.0479 |
| CGAGTCAG | 0.00299 |
| GGACGTAC | 0.138 |
| AGTAGTAT | 0.0343 |
| AACTTGAT | -0.00698 |

| Sequence | PBM E-score |
| --- | --- |
| ACCCGGTA | 0.177 |
| TGCTTGAA | 0.127 |
| GAACGCCA | -0.107 |
| GAGGTTCC | 0.00524 |
| CCTCTTGC | -0.145 |
| CTGAGGTC | -0.141 |
| CAAGTGAC | -0.18 |
| CTGGGTTA | -0.177 |
| ACTGACTC | -0.192 |
| GATCCATA | 0.0498 |
| ATAAGAAT | 0.17 |
| ATACGACA | 0.477 |
| ACATTACA | -0.0288 |
| ACCAGTAA | -0.0629 |
| AAAGGCCA | -0.0724 |
| AGCAACGC | 0.0264 |
| CATAGAGC | -0.274 |
| AATGCACC | -0.231 |
| CTGGAAGC | -0.236 |
| AAAGCTAT | 0.0307 |
| AATTAACC | -0.00385 |
| CTCCCCCA | -0.201 |
